# Assay results published in the RNAGym collection of RNA variant scans (doi:10.7554/elife.90254).
# Read counts are not given, so values of variants with three or more changes are uncertain.
# B1: LINE1-full (parent)
# chain: UACGUAGGUGGUUUUCCCCUGAUAGUGCUAAGGGGGCCUGGAAGUUUGGACUGGGCAGAGCUCAACACAGCGUGGCAAAGUGGCUGUGGCUAGACUGCCUCUCUGGAUUCCUCGUCACUCAGCAGGGCAUCUCUGAGAGAAAUGCC
# Variants of: B1
# Assay: self-cleavage, relative activity (ratio to wild type); higher = more cleavage; in vitro, sequencing; the parent is a self-cleaving ribozyme
row,Variant,self-cleavage
1,A22G G27A U87C,0.12
2,A22G G33C U39A,1.88
3,A22G G34A A141G,1.01
4,A22G G34A G54A U73A,0.32
5,A22G G35A G82A,1.58
6,A22G G35A U115C A121U A140G,1.33
7,A22G G35U A50G C110U,0.7
8,A22G G36A U96C G135A,0.18
9,A22G G36U U45A A57C G93C,0.02
10,A22G G44A C84U U100C A107G A138G,0.11
11,A22G G53A U134C A141U,1.01
12,A22G G54A U100C U115A A141G,0
13,A22G G55A U132A,0.87
14,A22G G60A A78G,0
15,A22G G72U A117G,2.22
16,A22G G74A C128U A129G,1.04
17,A22G G74A U85A U109C A142G,0.05
18,A22G G75A A117G U119C A142G,1.96
19,A22G G88A A117G A136U,0.04
20,A22G G114A G135A,0.3
21,A22G G125A C146U,0.79

row,Variant,self-cleavage
1,A22G U23A A64U U100C U109C A129G,1.25
2,A22G U23C A64G,0.63
3,A22G U23C C56U A69U G106A A136G,0.04
4,A22G U26A A78G,1.02
5,A22G U26A A92G,0.16
6,A22G U26A U29A U39A U104C,1.65
7,A22G U26C A77U A94U U100C C146U,0.42
8,A22G U26C G70C U102C G125U,0.37
9,A22G U26C U39C G75A A78U C90U,0.07
10,A22G U26C U109A,0
11,A22G U26G U104C,2.04
12,A22G U29A A43U G126C,1.35
13,A22G U29A U39A A67U,0.51
14,A22G U29C A43U U45A U73A,2.05
15,A22G U29C G93U,0.12
16,A22G U39A A43U G72A U73G A121G,1.53
17,A22G U39A U96A A140U,0.12
18,A22G U39C A77G,2.76
19,A22G U39C U47A A57G C133U,1.02
20,A22G U39C U91A G114U,0.6
21,A22G U45A U62C,0.14

row,Variant,self-cleavage
1,A22G U45A U96C,0.09
2,A22G U45C U62A A77G A117C,0
3,A22G U46A U87A,0.02
4,A22G U46A U119C,1.07
5,A22G U46C A79U U143A,0.73
6,A22G U47A C103U U132C,1.68
7,A22G U47C A141G,1.11
8,A22G U47C C116U U130C,1.51
9,A22G U52A U112C,1.23
10,A22G U52C A59U,1.38
11,A22G U52C A64G,0.35
12,A22G U52C A64U,0.39
13,A22G U52C A65G G83U U104A,0.09
14,A22G U52G A78G U91A U96A,0
15,A22G U62A A78U,0.08
16,A22G U62A G139A,0.15
17,A22G U62C A136G,0
18,A22G U62C U102C U119C A140G,0
19,A22G U62C U104C U119A A138G,0.18
20,A22G U62C U109C,0.15
21,A22G U73C G83A A138U,1.32

row,Variant,self-cleavage
1,A22G U73C U87A C123A,0.08
2,A22G U73G U96A,0.1
3,A22G U85A C113U,0.07
4,A22G U85C U130C,0
5,A22G U87A A141G,0.12
6,A22G U87C U102C U104A A117U,0.63
7,A22G U96A A107U U132C,0.2
8,A22G U96A U115A C128U,0.02
9,A22G U96A U130C,0
10,A22G U96C A138U,0
11,A22G U96C U100C U108C C116U,0.61
12,A22G U102A A107U U109A,2.19
13,A22G U102C A142G,1.71
14,A22G U104C A124U,1.53
15,A22G U104C U134C,0.85
16,A22G U109A A117G,1.11
17,A22G U115C A142G,2.52
18,A22G U119A A141G,1.3
19,A22U A24C A69G A94G,0.44
20,A22U A30G U52A A69G,1.38
21,A22U A30U U62C U130C,0.29
